Assay results published in the supplement of paper PMC3334620.
Whole data set: some 33,000 sequences, median “E-score (-0.5 to 0.5)” near -0.011, cut for the highest 2% near 0.28. Some of the results follow.

Target: T1, Gcr1 (UniProt P07261)
T1 sequence: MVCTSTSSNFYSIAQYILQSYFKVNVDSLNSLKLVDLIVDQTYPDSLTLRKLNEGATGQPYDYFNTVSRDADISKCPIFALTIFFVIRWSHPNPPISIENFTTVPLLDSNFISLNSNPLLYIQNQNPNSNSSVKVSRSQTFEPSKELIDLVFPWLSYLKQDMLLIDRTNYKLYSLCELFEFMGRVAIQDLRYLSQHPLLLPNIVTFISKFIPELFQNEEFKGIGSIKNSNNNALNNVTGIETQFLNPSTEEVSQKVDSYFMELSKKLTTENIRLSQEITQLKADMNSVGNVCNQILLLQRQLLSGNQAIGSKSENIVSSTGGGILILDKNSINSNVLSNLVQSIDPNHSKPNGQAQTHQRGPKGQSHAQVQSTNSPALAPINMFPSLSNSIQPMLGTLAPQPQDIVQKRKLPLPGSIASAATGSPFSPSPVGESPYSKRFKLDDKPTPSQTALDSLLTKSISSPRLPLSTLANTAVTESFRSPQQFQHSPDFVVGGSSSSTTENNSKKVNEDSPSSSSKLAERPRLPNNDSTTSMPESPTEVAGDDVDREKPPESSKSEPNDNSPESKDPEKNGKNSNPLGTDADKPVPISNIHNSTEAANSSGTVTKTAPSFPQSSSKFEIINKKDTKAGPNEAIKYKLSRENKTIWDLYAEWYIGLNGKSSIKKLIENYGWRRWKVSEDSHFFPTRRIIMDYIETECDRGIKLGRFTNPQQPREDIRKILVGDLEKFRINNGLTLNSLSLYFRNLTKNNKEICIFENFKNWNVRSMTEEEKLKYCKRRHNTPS
Assay: PBM E-score (8-mer binding enrichment) (E-score (-0.5 to 0.5)); higher = stronger / more preferred TF binding; most listed sequences are background and not binding sites
Conditions: protein concentration: 100 nM; construct: GST-full length
Description: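 Universal 'all 10-mer' protein binding microarrays (Agilent AMADID 015681) probed with GST-tagged S. cerevisiae TFs (full-length or DBD) made by in vitro transcription/translation (PURExpress), about 100-200 nM. Bound TF was detected with fluorescent anti-GST. Each ungapped 8-mer (which stands for itself and its reverse complement) is scored by the PBM enrichment score (E-score), a modified Wilcoxon-Mann-Whitney statistic from -0.5 to +0.5, computed with the Universal PBM Analysis Suite. Scale: above 0.35 generally sequence-specific binding.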

Point of comparison: AGTGACTG, “PBM E-score” value -0.0392. Against it:
- TCACGCGA — lower, -0.0406
- TCTCGGCA — higher, 0.152
- CCCCTTAA — higher, 0.0343
- ACACATAA — lower, -0.0773
- TTTTAAAA — higher, 0.153
- AGTGTACA — higher, 0.0281
- AGGGGAGA — higher, -0.0201
- CGTAGCAA — lower, -0.0485
- GTGGCTTA — higher, -0.00723
- CGGTAGGC — lower, -0.0818
- CTTCCAAC — higher, 0.181
- CGCAGTCC — higher, -0.0173
- GAGGCTTA — lower, -0.14
- CGAAAGTC — lower, -0.144
- CACTGCGC — higher, 0.0628
- AAAGAGTG — higher, 0.0629
- AGTAAAAG — higher, 0.181
- GTCCACTA — higher, 0.334
- GTCAAGTA — lower, -0.284
- AGGAGAGA — higher, 0.0991
- GAGACTCC — lower, -0.0481
- CAAAAGTG — higher, 0.0522
- CGCTGTCC — lower, -0.254
- GGTGGTAA — lower, -0.0891
- ACTCTACC — lower, -0.158
- TGGAAGAA — higher, 0.117
- ATCATGCC — higher, -0.00305
- ATTGCGAA — higher, 0.129
- AGTCGGTA — lower, -0.0934
- AACCCAGG — higher, 0.056
- TATGGTAA — higher, 0.00173
- GGCATGTA — higher, 0.0177
- GCGTGGAA — lower, -0.157
- GTACAAAC — higher, 0.012
- ACCATGTG — lower, -0.0658
- AAAGCGTC — higher, 0.013
- TCCCATCA — lower, -0.0692
- ATAATTAG — higher, 0.154
- CCCACAGC — higher, 0.221
- AAAGTACT — lower, -0.118
- AGCCCGGC — lower, -0.0879
- AACGAGTC — lower, -0.0816
- AGCCTCGC — lower, -0.278
- AGCATTGG — lower, -0.112
- CATAACCA — lower, -0.118
- ATTAGTGA — higher, 0.0812
- GTGAGTCA — lower, -0.19
- CCAGACCG — lower, -0.134
- CATCCACC — higher, 0.0114
- GTAAGAAA — higher, -0.021
- ATAGAATC — higher, 0.186
- AATTACGG — higher, 0.236
- ACATGATG — lower, -0.201
- AAAAAGAA — higher, 0.275
- GCTCTACC — lower, -0.226
- AACATTGT — higher, 0.0112
- AGTATCCC — higher, 0.159
- TCTCTGAA — lower, -0.0468
- AATGAAAT — higher, 0.214
- AACTCGGT — higher, 0.00894
- ACCGTCGG — lower, -0.257
- ATCGCCGG — higher, 0.123
- GCTCCACC — lower, -0.0809
- ACCCCTCG — lower, -0.122
- AGCTCAAC — lower, -0.109
- AACCCATA — higher, 0.153
- GTTTTTAA — higher, 0.273
- CAGGTTAA — lower, -0.0725
- AAACTCTA — higher, 0.0598
- CTATGAGA — lower, -0.0751
- AAAATCTA — higher, 0.13
- AGTGCTGC — higher, 0.039
- CAGTTATC — higher, -0.0025
- CCCGTGCC — lower, -0.114
- GATGCTAC — higher, 0.338
- ATTCAGTC — higher, 0.0416
- AAAATAGA — higher, 0.0544
- AAATCACA — higher, 0.05
- AGCGGCCA — higher, 0.0725
- CGATCCCC — higher, 0.111
- ATGATGGC — higher, 0.0152
- AGCTACAA — higher, 0.0399
- ACGAGAGA — lower, -0.277
- TAAGCATA — higher, -0.0359
- ATGAAGTC — lower, -0.0984
- AATCCACG — higher, 0.135
- GTAGGATA — lower, -0.109
- ACGAGAAG — higher, 0.0973
- CTAGTACC — higher, -0.017
- ATGGGCCA — lower, -0.112
- ACACGAGA — higher, 0.135
- CAGTCCAA — lower, -0.166
- CGCCCGAC — higher, -0.00775
- AAATGGTT — higher, 0.0753
- AATATAAC — lower, -0.048
- AATAAACC — lower, -0.0512
- ATTAACGC — higher, 0.0245
- TCGCCAGA — lower, -0.0962
- ACATAAAC — higher, 0.106
- AGCGGACA — higher, -0.0185
- TACTACAA — higher, 0.118
- AAGTGTTA — lower, -0.144
- ACCGAAAG — higher, -0.0319
- AGACAGCA — lower, -0.109
- CATACTCG — lower, -0.102
- AAAAAAGA — higher, 0.267
- ACGTGATA — lower, -0.0863
- TCACCGAA — higher, 0.0527
- AATTAGCA — higher, 0.0964
- CTACTCGA — higher, 0.0442
- AGGGTAGC — lower, -0.37
- GGGTGAAA — lower, -0.088
- AGATTAAG — higher, 0.0255
- GGTGTCTA — higher, 0.0118
- AGAGCACC — higher, 0.163
- ATTAACTC — higher, 0.0558
- TGGCGCAA — higher, -0.0289
- GCCGTGAA — higher, -0.0368
- AGTCGACG — lower, -0.0927
- GTGTGCTA — higher, -0.037
- ATAACACC — lower, -0.0694
- AATGAAAG — lower, -0.0494
- AAGAGTCA — lower, -0.077
- AGCGAGTG — lower, -0.206
- TCAATACA — higher, 0.128
- CGGTATGA — lower, -0.0622
- GAGCGTCA — higher, 0.0398
- GAGCGAAC — lower, -0.28
- AGCCGAGC — lower, -0.0751
- CATGCGTC — lower, -0.0513
- ATATCTCG — lower, -0.0555
- ACCCGGGC — higher, 0.0885
- ATAAGCAG — higher, 0.155
- CCTAGAGG — higher, 0.0618
- GTTGACCA — lower, -0.0401
- AAGTTACT — higher, 0.119
- ACTATACC — higher, 0.109
- CGTACGGA — higher, 0.101
- CACCCCGA — higher, 0.206
- TGTTCTAA — higher, 0.0359
- AACGGGAC — lower, -0.207
- CGCGCGCA — lower, -0.104
- ATCCTCGC — higher, 0.0994
- GCACGTCC — higher, -0.00197
- ATAGCGAA — higher, -0.0252
- GTCACAGA — higher, 0.00024
- CCCTCTAA — higher, 0.0336
- CAACTCGC — lower, -0.199
- TGAGAGAA — higher, -0.00362
- AGACGGTC — lower, -0.274
- CACGTACG — higher, 0.0426
- GCACCGGA — higher, 0.124
- CCAATACC — higher, 0.205
- CTGTTTTA — higher, 0.0786
- CAACATGC — higher, -0.0266
- CGAGTGGA — higher, 0.233
- AAAAGGTC — lower, -0.0982
- CTTATTTA — higher, 0.13
- TAGGCCGA — lower, -0.231
- CTTGTCCA — lower, -0.0626
- CAACAATC — higher, 0.0112
- ACCTAGAT — higher, 0.0487
- CGTCCGTA — higher, 0.0514
- AGTTCCAC — higher, 0.0854
- TATATGGA — higher, 0.038
- ACGTGTTC — higher, -0.0263
- TACGCTAA — higher, 0.0157
- CAAAAAAA — higher, 0.245
- CATCAGCG — higher, 0.0936
- AGATTCAC — higher, -0.00764
- AACCAGCC — higher, 0.0606
